# PubChem BioAssay (Tox21)
# Inconclusive results, whose numbers are uncertain, are shown with a selection of clear calls. For some assays here: A potency beside an inconclusive call is a rough fit, not a confirmed value. Calls of active or inactive are those of the source. Unless noted, calls come from the whole dose curve; as a rule, active = well fitted curve in the direction sought with a large enough effect in the repeat runs; inconclusive = weak or mixed curves; inactive = no such curve, though single readings can be large; an effect the other way counts as inactive or inconclusive.
# Legend:
# [1] = molecular target: Aryl hydrocarbon receptor (Homo sapiens) (UniProt P35869); assay: qHTS assay to identify small molecule that activate the aryl hydrocarbon receptor (AhR) signaling pathway (AID 743085); note: nearly all actives have a fitted effect of over 15% in size; note: potency is the fitted concentration of half-maximal effect
# How it was run: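 HepG2 cells stably carrying a 20-DRE firefly luciferase reporter (HG2L7.5c1) treated with compound for 24 hr at 37C. Luciferase read by ONE-Glo luminescence, with CellTiter-Fluor viability read first.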
# [2] = molecular target: Peroxisome proliferator-activated receptor gamma (Homo sapiens) (UniProt P37231); assay: qHTS assay to identify small molecule agonists of the peroxisome proliferator-activated receptor gamma (PPARg) signaling pathway (AID 743094; active = well fitted activation curve with a large enough effect in the signal ratio in the repeat runs, not every such curve was filed as active; inconclusive = weak or mixed curves, or effect the other way; inactive = no such curve, though single readings can be large or run the other way; the % refers to the signal ratio; note: potency is the fitted concentration of half-maximal effect); conditions: HEK293H PPARg-UAS-bla, beta-lactamase FRET ratio, 17 h; activation: at 57 µM (top of the series) unless noted
# How it was run: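 Reporter activation was scored by fluorescence of cleaved LiveBLAzer B/G substrate (1 h, room temperature) in PPARg-bla HEK293H cells previously treated 17 h at 37C with DMSO-dissolved compounds.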
# [3] = qHTS assay for small molecule agonists of the antioxidant response element (ARE) signaling pathway (AID 743202; active = well fitted activation curve with a large enough effect in the signal ratio in the repeat runs, not every such curve was filed as active; inconclusive = weak or mixed curves, or effect the other way; inactive = no such curve, though single readings can be large or run the other way; the % refers to the signal ratio; note: potency is the fitted concentration of half-maximal effect); conditions: HepG2 ARE-bla reporter, beta-lactamase FRET, 16 h; activation: at 73.3 µM (top of the series) unless noted
# How it was run: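 Following a 16 h, 37 C exposure of reporter HepG2 cells (ARE-driven beta-lactamase, 2,000 cells/well) to compounds, FRET substrate was applied for 2 h at room temperature and fluorescence intensity recorded.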
# [4] = qHTS assay for small molecule agonists of the antioxidant response element (ARE) signaling pathway - cell viability counter screen (AID 743203; calls by dose curve; note: % is set by controls: 0 for no effect and ±100 for the full control effect; nearly all actives have a fitted effect of over 55% in size); conditions: ARE-bla HepG2 viability, CellTiter-Glo luminescence, 16 h; viability change, negative = cytotoxic: at 73.3 µM (top of the series)
# How it was run: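 Viability counter screen: stably transfected ARE-bla HepG2 line, 16 hrs compound exposure at 37C/5% CO2, ATP-based CellTiter-Glo luminescence measured in the reporter wells.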
# [5] = qHTS assay for small molecule activators of the heat shock response signaling pathway (AID 743210; active = well fitted activation curve with a large enough effect in the signal ratio in the repeat runs, with a control signal flat, not every such curve was filed as active; inconclusive = weak or mixed curves; the % refers to the signal ratio; note: potency is the fitted concentration of half-maximal effect); conditions: HeLa HSE-bla reporter, beta-lactamase ratio, 5 h; activation: at 62.6 µM (top of the series)
# How it was run: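 Heat shock element–beta-lactamase HeLa reporter cells; qHTS with compounds for 5 h at 37 C; detection by FRET substrate fluorescence after 2.5 h at RT.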
# [6] = molecular target: Peroxisome proliferator-activated receptor delta (Homo sapiens) (UniProt Q03181); assay: qHTS assay to identify small molecule agonists of the peroxisome proliferator-activated receptor delta (PPARd) signaling pathway (AID 743212; calls by dose curve; note: potency is the fitted concentration of half-maximal effect); conditions: HEK293H PPARd-UAS-bla, beta-lactamase FRET ratio, 17 h; activation: at 62.6 µM (top of the series) unless noted
# How it was run: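 Beta-lactamase reporter read by fluorescence (LiveBLAzer B/G FRET, 2 h, room temperature). Test agents, in DMSO, incubated at 37 C with PPARd-bla HEK293H cells.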
# [7] = molecular target: Peroxisome proliferator-activated receptor delta (Homo sapiens) (UniProt Q03181); assay: qHTS assay to identify small molecule antagonists of the peroxisome proliferator-activated receptor delta (PPARd) signaling pathway (AID 743215; active = well fitted inhibition curve with a large enough effect in the signal ratio in the repeat runs, not every such curve was filed as active; inconclusive = weak or mixed curves, or effect the other way; inactive = no such curve, though single readings can be large or run the other way; the % refers to the signal ratio;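 note: cells stimulated with agonist L165041 at 300 nM final during compound exposure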; note: potency is the fitted concentration of half-maximal effect); conditions: HEK293H PPARd-UAS-bla, beta-lactamase FRET ratio, antagonist, 17 h; ratio activity, negative = inhibition: at 62 µM (top of the series) unless noted
# How it was run: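 Plated HEK293H PPARd-bla cells rested 5 h at 37 C and 5% CO2. Compound, then agonist L165041 at 300 nM final, was added; 17 h at 37 C followed. Substrate loading, 2 h room temperature, fluorescence measured.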
# [8] = molecular target: Bile acid receptor (Homo sapiens) (UniProt Q96RI1); assay: qHTS assay to identify small molecule antagonists of the farnesoid-X-receptor (FXR) signaling pathway (AID 743217; active = well fitted inhibition curve with a large enough effect in the signal ratio in the repeat runs, not every such curve was filed as active; inconclusive = weak or mixed curves, or effect the other way; inactive = no such curve, though single readings can be large or run the other way; the % refers to the signal ratio; note: % is set by controls: 0 for no effect and ±100 for the full control effect); conditions: HEK293T FXR-UAS-bla, beta-lactamase ratio, CDCA-stimulated, 16 h; activity change, negative = inhibition: at 62.6 µM (top of the series) unless noted
# How it was run: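 Screen of the Tox21 10K library in quantitative HTS format using FXR-UAS-bla HEK 293T reporter cells. Agonist chenodeoxycholic acid, 50 uM final, added with compounds; 16 h incubation at 37 °C; beta-lactamase FRET fluorescence measured.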
# [9] = molecular target: Vitamin D3 receptor (Homo sapiens) (UniProt P11473); assay: qHTS assay to identify small molecule agonists of the vitamin D receptor (VDR) signaling pathway (AID 743222; calls by dose curve; note: potency is the fitted concentration of half-maximal effect); conditions: HEK293T VDR-UAS-bla, beta-lactamase FRET ratio, 16 h; activation: at 63.5 µM (top of the series) unless noted
# How it was run: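 Fluorescence from cleaved LiveBLAzer B/G FRET substrate served as readout. VDR-bla cells had been treated 16 h at 37C with test compounds in DMSO, following a 4 h settling period, and substrate was loaded for 2 h at RT.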
# [10] = qHTS assay to identify small molecule that activate the aryl hydrocarbon receptor (AhR) signaling pathway - cell viability counter screen (AID 743086); note: nearly all actives have a fitted effect of over 45% in size; note: potency is the fitted concentration of half-maximal effect;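 for viability change, negative = cytotoxic: HepG2 liver cells carrying the AhR DRE luciferase reporter; % is set by controls: 0 for no effect and ±100 for the full control effect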
# How it was run: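 HepG2-AhR-luc (HG2L7.5c1) cells, 4000/well, were preincubated 5 h at 37C, exposed to compound in qHTS format for 24 hr at 37C, then given CellTiter-Fluor for 30 min; viability was read as fluorescence in the reporter wells.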
# [11] = molecular target: Peroxisome proliferator-activated receptor gamma (Homo sapiens) (UniProt P37231); assay: qHTS assay to identify small molecule antagonists of the peroxisome proliferator-activated receptor gamma (PPARg) signaling pathway (AID 743191; calls by dose curve; note: nearly all actives have a fitted effect of over 30% in size; note: potency is the fitted concentration of half-maximal effect; for ratio activity, negative = inhibition: % is set by controls: 0 for no effect and ±100 for the full control effect); conditions: HEK293H PPARg-UAS-bla, beta-lactamase ratio, antagonist, 17 h; ratio activity, negative = inhibition: at 62.6 µM (top of the series) unless noted
# How it was run: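 GeneBLAzer PPARg UAS-bla HEK293H cells carrying a UAS-driven beta-lactamase reporter were plated at 3000 cells/well, preincubated 5 h at 37C, then given compound for 17 h at 37C; LiveBLAzer B/G FRET substrate was read after 1 h at room temperature.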
# [12] = qHTS assay to identify aromatase inhibitors - cell viability counter screen (AID 743084); conditions: MCF-7 aro ERE viability, CellTiter-Fluor, 24 h; activity change, negative = cytotoxicity: at 70.3 µM (top of the series);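 note: cells stimulated with testosterone during compound exposure; nearly all actives have a fitted effect of over 55% in size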; note: potency is the fitted concentration of half-maximal effect
# [13] = qHTS assay to identify small molecule antagonists of the peroxisome proliferator-activated receptor gamma (PPARg) signaling pathway - cell viability counter screen (AID 743194); conditions: PPARg-bla HEK293H viability, CellTiter-Glo luminescence, 17 h, co-treated with 50 nM rosiglitazone; activity change, negative = cytotoxicity: at 62.6 µM (top of the series); note: nearly all actives have a fitted effect of over 55% in size; note: potency is the fitted concentration of half-maximal effect
# How it was run: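 PPARg-UAS-bla HEK293H cells were plated, rested 5 h at 37 C, then treated with compounds plus rosiglitazone (50 nM final) for 17 h at 37 C; viability was then read by CellTiter-Glo luminescence after 30 min at room temperature.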
# [14] = qHTS assay to identify small molecule agonists of the peroxisome proliferator-activated receptor delta (PPARd) signaling pathway - cell viability counter screen (AID 743211); conditions: PPARd-bla HEK293H viability, CellTiter-Glo luminescence, 17 h; activity change, negative = cytotoxicity: at 62.6 µM (top of the series); note: nearly all actives have a fitted effect of over 55% in size; note: potency is the fitted concentration of half-maximal effect
# How it was run: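 PPARd-bla HEK293H cells (3000/well) were pre-incubated 5 h at 37 C, then exposed to compound for 17 h at 37 C. After 2 h with LiveBLAzer substrate, CellTiter-Glo was added to the same wells; luminescence read after 30 min at room temperature.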
# [15] = qHTS assay to identify small molecule antagonists of the peroxisome proliferator-activated receptor delta (PPARd) signaling pathway - cell viability counter screen (AID 743213); conditions: PPARd-bla HEK293H viability, CellTiter-Glo luminescence, 17 h; viability change, negative = cytotoxic: at 62 µM (top of the series) unless noted; note: potency is the fitted concentration of half-maximal effect; nearly all actives have a fitted effect of over 50% in size
# How it was run: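 Viability counter-screen, qHTS format: PPARd-bla HEK293H, L165041 300 nM final, 17 h compound exposure at 37 C, CellTiter-Glo luminescence after 30 min RT.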
# [16] = qHTS assay to identify small molecule antagonists of the farnesoid-X-receptor (FXR) signaling pathway - cell viability counter screen (AID 743221; active = well fitted cell-killing curve with a large enough effect in the repeat runs, not every such curve was filed as active; inconclusive = weak or mixed curves, or effect the other way; inactive = no such curve, though single readings can be large or run the other way; note: potency is the fitted concentration of half-maximal effect; nearly all actives have a fitted effect of over 50% in size); conditions: FXR-bla HEK293T viability, CellTiter-Glo luminescence, 16 h; activity change, negative = cytotoxicity: at 62.6 µM (top of the series)
# How it was run: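 GeneBLAzer FXR-UAS-bla HEK 293T cells, compound plus chenodeoxycholic acid (50 uM final), 16 h at 37 C. CellTiter-Glo added to the same wells after the beta-lactamase read; luminescence read after 30 min at room temperature as viability.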
# [17] = molecular target: Vitamin D3 receptor (Homo sapiens) (UniProt P11473); assay: qHTS assay to identify small molecule antagonists of the vitamin D receptor (VDR) signaling pathway (AID 743223; active = well fitted inhibition curve with a large enough effect in the signal ratio in the repeat runs, not every such curve was filed as active; inconclusive = weak or mixed curves, or effect the other way; inactive = no such curve, though single readings can be large or run the other way; the % refers to the signal ratio; note: % is set by controls: 0 for no effect and ±100 for the full control effect); conditions: VDR-UAS-bla HEK293T, beta-lactamase FRET ratio, 16 h; activity change, negative = inhibition: at 61 µM (top of the series) unless noted
# How it was run: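 VDR-bla cells were treated with compound plus 3 nM final 1alpha,25-dihydroxyvitamin D3 for 16 h at 37C. Beta-lactamase reporter read by B/G FRET substrate fluorescence after 2 h at room temperature. qHTS format.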
# [18] = qHTS assay to identify small molecule agonists of the farnesoid-X-receptor (FXR) signaling pathway - cell viability counter screen (AID 743218); conditions: FXR-bla HEK293T viability, CellTiter-Glo luminescence, 16 h; viability change, negative = cytotoxic: at 62.6 µM (top of the series) unless noted; note: potency is the fitted concentration of half-maximal effect; nearly all actives have a fitted effect of over 45% in size
# How it was run: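 Viability of FXR-bla HEK 293T cells is measured by ATP-based CellTiter-Glo luminescence following 16 h compound treatment at 37 C and a prior 2 h room-temperature beta-lactamase substrate step.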
# Tags give direction and shape of the fitted curve or compound fluorescence and quenching.
# Sequence of UniProt Q03181 (Q03181 whole entry, looked up): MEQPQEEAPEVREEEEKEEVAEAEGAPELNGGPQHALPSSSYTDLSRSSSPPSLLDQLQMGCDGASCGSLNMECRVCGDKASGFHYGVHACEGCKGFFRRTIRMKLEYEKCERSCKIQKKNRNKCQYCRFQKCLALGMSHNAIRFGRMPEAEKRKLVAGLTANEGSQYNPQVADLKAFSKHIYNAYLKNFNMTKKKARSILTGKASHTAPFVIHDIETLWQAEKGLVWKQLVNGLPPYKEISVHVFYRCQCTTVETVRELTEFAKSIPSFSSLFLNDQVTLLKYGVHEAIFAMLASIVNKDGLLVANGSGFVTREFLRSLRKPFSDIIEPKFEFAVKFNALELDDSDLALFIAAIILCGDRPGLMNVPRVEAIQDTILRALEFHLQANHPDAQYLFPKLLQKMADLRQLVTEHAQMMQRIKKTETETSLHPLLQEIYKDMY
# Sequence of UniProt P11473 (P11473 whole entry, looked up): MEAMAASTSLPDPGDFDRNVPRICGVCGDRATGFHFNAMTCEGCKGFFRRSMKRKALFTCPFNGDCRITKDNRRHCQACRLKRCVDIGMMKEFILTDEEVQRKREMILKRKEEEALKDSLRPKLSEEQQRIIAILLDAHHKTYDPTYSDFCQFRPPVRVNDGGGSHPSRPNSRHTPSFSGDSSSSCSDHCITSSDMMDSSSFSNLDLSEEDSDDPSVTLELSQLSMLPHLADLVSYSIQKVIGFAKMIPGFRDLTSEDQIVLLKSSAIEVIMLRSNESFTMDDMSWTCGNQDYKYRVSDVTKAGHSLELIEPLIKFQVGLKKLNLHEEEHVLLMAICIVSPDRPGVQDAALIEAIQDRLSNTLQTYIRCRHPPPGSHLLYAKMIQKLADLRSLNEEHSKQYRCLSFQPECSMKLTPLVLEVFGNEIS
# Sequence of UniProt P37231 (P37231 whole entry, looked up): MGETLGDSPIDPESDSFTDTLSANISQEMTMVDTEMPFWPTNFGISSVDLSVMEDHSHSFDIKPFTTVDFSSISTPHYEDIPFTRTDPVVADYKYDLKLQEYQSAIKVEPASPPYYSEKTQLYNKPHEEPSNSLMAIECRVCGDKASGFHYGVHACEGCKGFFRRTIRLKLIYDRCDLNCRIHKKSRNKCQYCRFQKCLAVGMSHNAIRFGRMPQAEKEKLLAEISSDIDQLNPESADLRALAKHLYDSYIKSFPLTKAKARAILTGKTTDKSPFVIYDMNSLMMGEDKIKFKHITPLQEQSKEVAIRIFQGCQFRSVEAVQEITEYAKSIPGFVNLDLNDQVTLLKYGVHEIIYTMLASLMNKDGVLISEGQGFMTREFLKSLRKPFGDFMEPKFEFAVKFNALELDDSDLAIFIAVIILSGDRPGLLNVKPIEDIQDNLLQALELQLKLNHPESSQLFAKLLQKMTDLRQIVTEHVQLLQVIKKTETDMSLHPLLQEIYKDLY
# Sequence of UniProt P35869 (P35869 whole entry, looked up): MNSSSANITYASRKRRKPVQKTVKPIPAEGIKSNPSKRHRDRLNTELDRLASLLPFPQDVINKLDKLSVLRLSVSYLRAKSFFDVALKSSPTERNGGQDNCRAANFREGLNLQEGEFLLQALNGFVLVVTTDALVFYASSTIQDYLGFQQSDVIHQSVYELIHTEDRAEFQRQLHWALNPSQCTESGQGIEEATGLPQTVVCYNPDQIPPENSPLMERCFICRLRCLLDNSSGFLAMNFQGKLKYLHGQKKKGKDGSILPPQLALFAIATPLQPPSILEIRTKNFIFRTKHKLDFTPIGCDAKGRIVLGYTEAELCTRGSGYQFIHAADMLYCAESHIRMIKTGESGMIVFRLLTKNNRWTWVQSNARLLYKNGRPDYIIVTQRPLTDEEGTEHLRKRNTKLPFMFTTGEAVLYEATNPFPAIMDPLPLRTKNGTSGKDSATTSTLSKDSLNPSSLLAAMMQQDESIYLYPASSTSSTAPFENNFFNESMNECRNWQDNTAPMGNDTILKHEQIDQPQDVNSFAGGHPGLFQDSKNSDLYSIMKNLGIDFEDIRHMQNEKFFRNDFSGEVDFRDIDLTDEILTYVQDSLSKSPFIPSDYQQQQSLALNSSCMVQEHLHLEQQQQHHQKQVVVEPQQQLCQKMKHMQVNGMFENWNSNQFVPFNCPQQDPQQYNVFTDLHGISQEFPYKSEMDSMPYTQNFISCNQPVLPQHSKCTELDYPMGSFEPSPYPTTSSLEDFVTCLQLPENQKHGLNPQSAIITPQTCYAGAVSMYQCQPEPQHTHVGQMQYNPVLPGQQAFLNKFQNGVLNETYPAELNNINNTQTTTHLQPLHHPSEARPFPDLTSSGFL
# Sequence of UniProt Q96RI1 (Q96RI1 whole entry, looked up): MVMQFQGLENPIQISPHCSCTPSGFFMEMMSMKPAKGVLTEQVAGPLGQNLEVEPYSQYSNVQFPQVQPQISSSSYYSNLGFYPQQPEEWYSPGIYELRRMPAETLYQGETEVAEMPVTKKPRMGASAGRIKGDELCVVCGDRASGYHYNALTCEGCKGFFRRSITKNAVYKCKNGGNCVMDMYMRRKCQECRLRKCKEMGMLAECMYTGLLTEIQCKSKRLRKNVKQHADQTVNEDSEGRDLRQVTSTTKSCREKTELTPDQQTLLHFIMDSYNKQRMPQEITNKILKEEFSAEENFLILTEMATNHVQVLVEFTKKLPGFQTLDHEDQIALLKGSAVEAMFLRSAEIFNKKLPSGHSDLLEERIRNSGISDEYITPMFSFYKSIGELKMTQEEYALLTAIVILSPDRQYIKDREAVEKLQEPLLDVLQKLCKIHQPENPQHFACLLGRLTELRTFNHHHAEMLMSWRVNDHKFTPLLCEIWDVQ
compound,measurement,setting,value
O=C(O)Cn1c(C(=O)Nc2nc(-c3ccccc3Cl)cs2)cc2ccccc21,Potency,[1],"inconclusive: 33.5 µM [activator, single point]"
same,Potency,[2],inconclusive: 15.1 µM
same,Potency,[3],active: 21.1 µM
same,Potency,[4],inactive
same,Potency,[5],inconclusive: 29.8 µM
same,Potency,[6],"inconclusive: 21.1 µM [rising, partial curve]"
same,Potency,[7],"inconclusive: 0.266 µM [fluorescent, partial curve, poor fit]"
same,Potency,[8],inactive
same,Potency,[9],"inconclusive: 29.8 µM [fluorescent, single point]"
O=C1c2ccccc2C(=O)c2cc(Cl)ccc21,Potency,[1],"inconclusive: 1.68 µM [activator, single point]"
same,"viability change, negative = cytotoxic",[10],inactive: 10.5% [at 8.47 µM]
same,"ratio activity, negative = inhibition",[11],inconclusive: 3.2% [at 5.95 µM]
c1ccsc1,Potency,[12],"inconclusive: 2.07 µM [cytotoxic, partial curve, poor fit]"
same,Potency,[9],inactive
CCCCOCCOC(=O)CCCCCCCCC(=O)OCCOCCCC,Potency,[12],inactive
same,Potency,[5],inactive
same,Potency,[6],inactive
Nc1c(NC/C=C\COc2cc(CN3CCCCC3)ccn2)c(=O)c1=O,Potency,[1],"inconclusive: 11.9 µM [activator, partial curve, poor fit]"
same,Potency,[10],"inconclusive: 9.44 µM [falling, partial curve]"
same,Potency,[3],"inconclusive: 11.6 µM [rising, partial curve, poor fit]"
same,Potency,[8],inactive
same,activation,[9],inconclusive: 2.6% [at 29.5 µM]
COc1cccc(CCc2ccccc2OCC(CN(C)C)OC(=O)CCC(=O)O)c1 (centres undefined),Potency,[1],"inconclusive: 11.9 µM [activator, partial curve, poor fit]"
same,Potency,[10],"inconclusive: 29.8 µM [falling, single point]"
same,activation,[2],inconclusive: -11.8%
same,"ratio activity, negative = inhibition",[11],inconclusive: -31.5%
same,Potency,[13],"inconclusive: 1.68 µM [cytotoxic, partial curve, poor fit]"
same,Potency,[3],"inconclusive: 33.5 µM [rising, single point]"
same,Potency,[14],"inconclusive: 26.6 µM [cytotoxic, partial curve]"
same,Potency,[15],inconclusive: 11.9 µM [cytotoxic]
same,Potency,[16],"inconclusive: 23.7 µM [falling, partial curve, poor fit]"
CCOC(=O)[C@H](CCc1ccccc1)N[C@@H](C)C(=O)N1Cc2cc(OC)c(OC)cc2C[C@H]1C(=O)O,Potency,[1],active: 9.44 µM
same,Potency,[2],"inconclusive: 30.1 µM [rising, partial curve, poor fit]"
same,Potency,[11],inactive
same,activation,[3],inconclusive: -0.302%
same,Potency,[7],inactive
CCCCCCCCCCCCN1CCOCC1,Potency,[1],inactive
same,Potency,[11],inactive
same,Potency,[3],inactive
same,Potency,[6],inactive
same,"activity change, negative = inhibition",[17],inconclusive: 1.42%
COCCOC(=O)C1=C(C)NC(C)=C(C(=O)OC(C)C)C1c1cccc([N+](=O)[O-])c1 (centres undefined),Potency,[1],"inconclusive: 4.73 µM [activator, partial curve]"
same,Potency,[11],inactive
same,Potency,[3],"inconclusive: 26.6 µM [rising, partial curve]"
same,Potency,[14],inactive
same,Potency,[15],"inconclusive: 2.98 µM [cytotoxic, single point]"
same,Potency,[9],"inconclusive: 13.3 µM [rising, partial curve, poor fit]"
same,Potency,[17],inactive
Cc1c(C)c2c(c(C)c1O)CC[C@@](C)(CCC[C@H](C)CCC[C@H](C)CCCC(C)C)O2,Potency,[1],inactive
same,"ratio activity, negative = inhibition",[11],inconclusive: 10.9% [at 81.1 µM]
same,Potency,[13],"inconclusive: 9.85 µM [rising, partial curve, poor fit]"
same,activation,[3],inconclusive: 2.24% [at 94.8 µM]
same,Potency,[6],inactive
N#Cc1ccccc1O,Potency,[1],"inconclusive: 38.6 µM [activator, partial curve]"
same,"ratio activity, negative = inhibition",[11],inconclusive: -1.19%
same,Potency,[14],inactive
CO/N=C1\CN(c2nc3c(cc2F)c(=O)c(C(=O)O)cn3C2CC2)CC1CN (centres undefined),Potency,[1],inactive
same,Potency,[11],"inconclusive: 16.8 µM [activator, partial curve, poor fit]"
same,activation,[3],inconclusive: 31%
CCOC(=O)c1ncn2c1CN(C)C(=O)c1cc(F)ccc1-2,Potency,[1],inactive
same,Potency,[13],inactive
same,Potency,[3],inactive
same,activation,[9],inconclusive: -1.06%
Cc1ccc(-c2ccccc2)cc1,Potency,[1],inactive
same,"activity change, negative = inhibition",[17],inconclusive: 6.59%
C[Si](C)(CCCN)O[Si](C)(C)CCCN,Potency,[1],"inconclusive: 54.5 µM [activator, single point]"
same,"ratio activity, negative = inhibition",[11],inconclusive: -39.1% [inhibitor]
same,activation,[3],inconclusive: -24.5%
same,Potency,[18],"inconclusive: 24.5 µM [cytotoxic, partial curve, poor fit]"
same,Potency,[9],"inconclusive: 13.8 µM [rising, partial curve, poor fit]"
CC(=O)c1ccc2c(c1)Cc1ccccc1-2,Potency,[1],active: 54.5 µM
same,Potency,[3],active: 7.7 µM
same,Potency,[6],inactive
same,"activity change, negative = inhibition",[17],inconclusive: 2.97%
